Measured values as given in PubChem BioAssay AID588342 (National Center for Advancing Translational Sciences (NCATS), 2011).
The campaign covered roughly 360,000 compounds. About 25,000 (6.9%) were called active. Inconclusive means that the source gave no clear call. Such entries were picked first, then a sample of the others. Calls follow the shape of the dose curve; as a rule, active = well fitted inhibition curve with a large enough effect; inconclusive = small, poorly fitted or top-dose-only effect; inactive = flat fitted curve, though single readings scatter. A potency beside an inconclusive call is a rough fit, not a confirmed value.

molecular target: Luciferin 4-monooxygenase (Photinus pyralis) (UniProt P08659); assay: qHTS profiling assay for firefly luciferase inhibitor/activator using purifed enzyme and Km concentrations of substrates (counterscreen for miR-21 project); details: purified FLuc, luminescence inhibition; series mostly up to 57.5 µM; activity change, negative = inhibition: at the top concentration; also: nearly all actives have a fitted effect of over 55% in size;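 as to activity change, negative = inhibition: plate controls were vehicle for no effect and reference inhibitor for full effect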
In short: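 Purified P. pyralis luciferase (10nM final) with 10uM D-luciferin and 10uM ATP (Km levels) in 50mM Tris acetate pH 7.5, 10mM Mg acetate, 0.01% Tween-20, 0.05% BSA; qHTS 6-point titration, ~60 µM downward; luminescence read.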
Potency is read from the fitted curve at half-maximal effect; tags tell the direction and shape of the fitted curve.

Chain of UniProt P08659 (P08659 whole entry, looked up): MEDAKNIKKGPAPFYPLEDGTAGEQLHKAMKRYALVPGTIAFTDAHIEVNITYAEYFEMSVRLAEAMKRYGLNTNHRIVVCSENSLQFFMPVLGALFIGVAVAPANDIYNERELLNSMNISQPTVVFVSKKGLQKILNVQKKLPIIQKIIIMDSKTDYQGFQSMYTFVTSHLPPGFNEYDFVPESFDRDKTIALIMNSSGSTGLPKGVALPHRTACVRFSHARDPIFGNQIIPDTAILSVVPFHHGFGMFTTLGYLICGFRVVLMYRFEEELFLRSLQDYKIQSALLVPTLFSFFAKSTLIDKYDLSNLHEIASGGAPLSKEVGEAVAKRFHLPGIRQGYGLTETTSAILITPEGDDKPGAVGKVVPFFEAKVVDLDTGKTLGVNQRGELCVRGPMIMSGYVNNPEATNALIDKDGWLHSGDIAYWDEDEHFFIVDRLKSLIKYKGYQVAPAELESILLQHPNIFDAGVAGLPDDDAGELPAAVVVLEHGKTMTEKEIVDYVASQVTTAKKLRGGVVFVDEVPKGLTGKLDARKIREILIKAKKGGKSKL

Row | SMILES | Potency | activity change, negative = inhibition
1 | CN(CCO)c1ccc(C(C(=O)c2ccccc2)c2ccc(N(C)CCO)cc2)cc1 | inconclusive: 23.9 µM [inhibitor, single point] | 
2 | Cc1sc(NC(=O)CCCC(=O)O)c(C#N)c1C | inconclusive: 23.9 µM [inhibitor, single point] | 
3 | CC(C)(C)C(=O)Nc1nc2c(s1)CN(Cc1ccccc1)CC2 | inconclusive: 23.9 µM [inhibitor, partial curve] | 
4 | Cc1ccc(NCc2ccccc2)cc1 | inconclusive: 37.9 µM [inhibitor, single point] | 
5 | O=[N+]([O-])c1ccc(N2CCCCC2)cc1 | inconclusive: 37.9 µM [inhibitor, single point] | 
6 | CCCCNC(=O)c1cnc2sc(N3CCCCCC3)nn2c1=O |  | inactive: -1.17%
7 | Cn1c(O)c(C=Nc2ccc(Br)cc2)sc1=O | inconclusive: 4.26 µM [inhibitor, partial curve, poor fit] | 
8 | COc1ccc2nc(NC(=O)c3cccs3)sc2c1 | active: 0.675 µM | 
9 | Cc1ccccc1-c1noc(-c2ccc(N3CCN(C)CC3)c([N+](=O)[O-])c2)n1 | inconclusive: 6.01 µM [inhibitor, partial curve] | 
10 | Cc1cc(C)c(NC(=O)C(=O)NCC(c2cccnc2)N2CCN(Cc3ccccc3)CC2)c(C)c1 (stereo unspecified) | inconclusive: 37.9 µM [inhibitor, partial curve, poor fit] | 
11 | CN(C)c1ccc(NC(=O)CSc2nc3ccsc3c(=O)n2CCCCCC(=O)O)cc1 | inconclusive: 23.9 µM [inhibitor, partial curve, poor fit] | 
12 | CC(C)Oc1ccc(C(=O)Nc2ccc(S(=O)(=O)N3CCN(C)CC3)cc2)cc1 |  | inactive: -11.5%
13 | CCNC(=O)N1CCNC(=O)C1CC(=O)Nc1ccc(C(=O)OCC)cc1 (stereo unspecified) | inconclusive: 23.9 µM [inhibitor, single point] | 
14 | Cc1ccccc1N1CCN(C2CCCN(C(=O)c3cn4cccc(C)c4n3)C2)CC1 (stereo unspecified) |  | inactive: 4.98%
15 | CCS(=O)(=O)c1ccccc1C(=O)Nc1ccc(-c2nc3ccccc3s2)cc1 | active: 9.53 µM | 
16 | Cc1cccc(NC(=O)CSc2nc(N)c(NC(=O)c3cccs3)c(=O)[nH]2)c1 | inconclusive: 23.9 µM [inhibitor, single point] | 
17 | CCc1ccc(NC(=O)C2CCN(S(=O)(=O)c3ccc4[nH]c(=O)ccc4c3)CC2)cc1 |  | inactive: -0.381%
18 | CC1Sc2ccc(C(=O)Nc3cc(S(C)(=O)=O)ccc3Cl)cc2NC1=O (stereo unspecified) |  | inactive: -15.6%
19 | CN1CCN(Cc2cccc(Oc3ccc(Cl)cc3)c2)CC1 | inconclusive: 23.9 µM [inhibitor, partial curve, poor fit] | 
20 | COc1ccc(NC(=O)c2cc([N+](=O)[O-])ccc2N2CCCC2)cc1S(N)(=O)=O |  | inactive: -0.458%
21 | COc1ccc(/C=C/C(=O)c2cc3c(cc2N)OCO3)cc1 | active: 2.13 µM | 
22 | COc1ccc(CC(=O)Nc2cc(-c3cn4cccnc4n3)ccc2OC)cc1 | inconclusive: 26.9 µM [inhibitor, partial curve, poor fit] | 
23 | Cc1ccc(NC(=O)c2ccc(CNS(=O)(=O)c3ccc4c(c3)C(C)(C)C(=O)N4C)cc2)cc1F | inconclusive: 23.9 µM [inhibitor, partial curve, poor fit] | 

Row | SMILES | Potency | activity change, negative = inhibition
24 | CCOC(=O)c1cnc2oc3ccccc3n2c1=O | inconclusive: 23.9 µM [inhibitor, partial curve, poor fit] | 
25 | Cc1nn(-c2ccccc2)c(Cl)c1/C=N/Nc1nc2ccccc2n1C | active: 2.39 µM | 
26 | O=C(NCC(c1cccnc1)N1CCc2ccccc21)c1ccc(F)cc1 (stereo unspecified) | inconclusive: 26.9 µM [inhibitor, partial curve] | 
27 | Cc1ccc(C)c(Nc2nn3c(=O)c4cc5c(cc4nc3s2)OCO5)c1 | inconclusive: 7.57 µM [inhibitor, partial curve, poor fit] | 
28 | CC(=C\c1ccccc1)/C=C1/SC(=S)N(CCC(=O)Nc2ccccn2)C1=O |  | inactive: -16.3%
29 | Cc1cc2c(cc1S(=O)(=O)CCC(=O)N1CCCCC1C)OCC(=O)N2 (stereo unspecified) | inconclusive: 26.9 µM [inhibitor, single point] | 
30 | CC1CCN(C(=O)COC(=O)c2cc(Cl)cc(Cl)c2N)CC1 | inconclusive: 37.9 µM [inhibitor, partial curve, poor fit] | 
31 | CCOC(=O)N1CCc2c(sc(NCc3cccs3)c2C(=O)Nc2ccc(OC)cc2OC)C1 | active: 13.5 µM | 
32 | O=C(O)C1CCCN1c1ncnc2c1oc1ccccc12 (stereo unspecified) | inconclusive: 21.3 µM [inhibitor, partial curve] | 
33 | Nc1ccc2oc(-c3ccccc3Cl)cc(=O)c2c1O | active: 6.75 µM | 
34 | CCn1c(SCC(=O)N2CCCCC2)nc2c(c1=O)SCC2 |  | inactive: -2.67%
35 | Cc1cc(C)c(C(=O)CN2C(=O)C(=O)N(C3CCCC3)C2=O)cc1C |  | inactive: -2.44%
36 | CCOC(=O)c1sc(NC(=O)c2cccnc2)c(C#N)c1C | active: 12 µM | 
37 | CN(C)/C=C1\C(=O)N(c2ccc(Cl)cc2)CS1(=O)=O | active: 16.9 µM | 
38 | COCc1c(C(=O)OCC(=O)N2c3ccccc3CC2C)oc2ccccc12 (stereo unspecified) |  | inactive: -1.21%
39 | CC1CCc2sc(C(=O)Nc3ccc(N4CCOCC4)cc3)cc2C1 (stereo unspecified) | inconclusive: 19 µM [inhibitor, partial curve] | 
40 | COc1ccc(CCNS(=O)(=O)c2cc(-c3onc(C)c3C)ccc2OC)cc1OC |  | inactive: -1.55%
41 | Cc1ccc(N=c2ssnc2Cl)cc1 | active: 21.3 µM | 
42 | O=C(O)c1ccc(N2CCN(c3ccc(Cl)cc3)CC2)c([N+](=O)[O-])c1 | inconclusive: 37.9 µM [inhibitor, single point] | 
43 | COc1ccc(C(CC(=O)Nc2cc(OC)c(OC)c(OC)c2)N2Cc3ccccc3C2=O)cc1 (stereo unspecified) |  | inactive: -10.8%
44 | Cc1ccc(CCNC(=O)c2c[nH]c3ccc(S(=O)(=O)Nc4cccc(C(F)(F)F)c4)cc3c2=O)cc1 | inconclusive: 10.7 µM [inhibitor, partial curve] | 
45 | O=C(CCC1CCCC1)Nc1cccn(Cc2ccccc2Br)c1=O | inconclusive: 26.9 µM [inhibitor, partial curve, poor fit] | 
46 | COc1ccc(C(=O)OCCc2cc3ccccc3c(=O)o2)cc1 | inconclusive: 6.75 µM [inhibitor, single point] | 
